Assay results taken from PubChem BioAssay (NCATS).
This list was built around the results that the source calls inconclusive (neither active nor inactive); the mix of calls is not that of the screen. For part of these data: Potencies of inconclusive entries are left out as doubtful fits. For part of these data: A note “side channel” means that the fit belongs to a control or component signal, not to the main read-out. Activity calls are given as the source filed them. Unless noted, calls come from the whole dose curve; as a rule, active = well fitted curve in the direction sought with a large enough effect; inconclusive = small, poorly fitted or top-dose-only effect, or another doubt; inactive = no such curve, though single readings can be large; an effect the other way counts as inactive or inconclusive.

Experiments:
[1] = Cell Viability - Hek293 (AID 427;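 active = compounds whose dose-response curve shows a full or clear partial loss of cell viability, called from curve shape rather than a numeric limit; inconclusive = weak partial curves or an effect only at the top dose; inactive = no dose-dependent loss of viability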;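 note: potency is the fitted concentration of half-maximal effect; cells exposed to compound for 40 hours at 37 °C before reading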); conditions: qHTS
Summary of the method: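 Luminescent ATP read-out (CellTiter-Glo, 20 min RT) after 40 hr compound exposure at 37 °C in complete medium. Signal normalized to DMSO (basal) and 100 uM tamoxifen (100% inhibition); concentration-response fitted with the standard Hill equation to give AC50.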

[2] = Cell Viability - HepG2 (AID 433; calls by dose curve;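 note: potency is the fitted concentration of half-maximal effect; potency for ATP loss meaning cytotoxicity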); conditions: qHTS
Summary of the method: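 Read-out is luciferase-based quantitation of cellular ATP as a measure of viable HepG2 cells after 40 h treatment at 37 °C. Signal decrease is scaled between DMSO-only and 100 uM tamoxifen controls, with AC50 fitted by the Hill equation.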

[3] = Cell Viability - MRC5 (AID 434; calls by dose curve;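 note: potency is the fitted concentration of half-maximal effect; potency reflects cytotoxicity seen as loss of intracellular ATP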); conditions: MRC5 lung fibroblast viability, qHTS
Summary of the method: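 qHTS cytotoxicity in human lung fibroblast MRC5 cells; 40 hr treatment, 37 °C; cellular ATP by luciferase luminescence; DMSO = 0%, 100 uM tamoxifen = 100% inhibition; Hill-fit AC50.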

[4] = Cell Viability - HUV-EC-C (AID 542); note: potency is the fitted concentration of half-maximal effect; nearly all actives have a fitted effect of over 35% in size
Summary of the method: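 HUV-EC-C normal human vascular endothelial cells, 1000 cells/well, pre-incubated 5 hr at 37 °C, then exposed to compounds for 40 hr at 37 °C in complete medium. Viability measured as intracellular ATP by CellTiter-Glo luminescence; AC50 from Hill fits.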

[5] = Cell Viability - Mesenchymal (AID 546); conditions: mesenchymal cells viability, qHTS; activity change, negative = cytotoxicity: at 91.7 µM (top of the series);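 note: potency is the fitted concentration of half-maximal effect; cells exposed to compound for 40 hours before reading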
Summary of the method: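 AC50 values reflect the drop in intracellular ATP in a human kidney mesenchymal line derived from normal glomeruli. Treatment lasts 40 hr at 37 °C in complete medium, and the signal comes from CellTiter-Glo luminescence.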

[6] = Cellular Toxicity (caspase-3) SHSY5Y (AID 657); note: potency is the fitted concentration of half-maximal effect
Summary of the method: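 qHTS, SH-SY5Y, 1500 cells/well, 5 h pre-incubation 37 °C; compound 16 h 37 °C; Caspase-Glo 3/7 1 h RT; luminescence. Norm.: DMSO = 0, 10 uM staurosporine = 100%. Hill fit → AC50.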

[7] = Cellular Toxicity (caspase-3) H-4-II-E (AID 663); conditions: H-4-II-E rat hepatoma, scaled: DMSO 0%, 100 µM tamoxifen 100%; at 92.2 µM (top of the series);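 note: cells exposed to compound for 16 hr before readout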
Summary of the method: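 Apoptosis induction is scored as increased luminescence from caspase 3/7 substrate cleavage in rat hepatoma H-4-II-E cells exposed to compound for 16 hr. Activity is scaled between DMSO and 100 uM tamoxifen.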

[8] = Cellular Toxicity (caspase-3) Renal Proximal Tubule (AID 667); conditions: renal proximal tubule cells, primary cells freshly taken from rat, solvent-only wells 0%, staurosporine 100%; at 91.7 µM (top of the series);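 note: cells exposed to compound for 16 hours at 37 °C before detection; 0% = DMSO basal and 100% = 10 µM staurosporine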
Summary of the method: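 AC50 derived by standard Hill fit of concentration-response data, normalized between DMSO basal and 10 uM staurosporine as 100% stimulation. Cells: primary rat kidney proximal tubule, 16 h treatment at 37 °C.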

[9] = Cell Viability - LYMP2-001 (AID 921); note: potency is the fitted concentration of half-maximal effect; nearly all actives have a fitted effect of over 70% in size
Summary of the method: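 Steps: seed 2500 lymphoblastoid cells/well; 5 hr, 37 C; add compound; 24 hr, 37 C; CellTiter-Glo reagent, 30 min room temperature; read luminescence. Concentration-response modeled by Hill equation for AC50.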

[10] = MultiTox-Fluor Cytotoxicity Assay - LYMP1-001 - Dead Cells (AID 946); conditions: LYMP1-001 lymphoblastoid cells, dead-cell protease fluorescence; note: potency is the fitted concentration of half-maximal effect
Summary of the method: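 AC50 from Hill fit of concentration-response; data normalized to DMSO (basal) and 15 uM tetraoctylammonium bromide (100%). LYMP1-001 lymphoblastoid cells, 2500/well, 16 hr compound at 37 C; dead-cell protease fluorescence, Ex/Em 485/520.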

[11] = MultiTox-Fluor Cytotoxicity Assay - LYMP1-001 - Live Cells (AID 947); note: potency is the fitted concentration of half-maximal effect
[12] = Cell Viability - LYMP1-002 - Assay at 16 hr (AID 948); conditions: LYMP1-002 lymphoblastoid cell viability; note: potency is the fitted concentration of half-maximal effect
Summary of the method: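 Seed 2500 LYMP1-002 cells per well in complete medium and hold 5 hr at 37 C. Add compound across a concentration series and incubate 16 hr at 37 C. Add CellTiter-Glo, wait 30 min at room temperature, read luminescence.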

[13] = MultiTox-Fluor Cytotoxicity Assay - LYMP1-002 - Dead Cells (AID 960); note: potency is the fitted concentration of half-maximal effect; nearly all actives have a fitted effect of over 60% in size
Summary of the method: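 Human lymphoblastoid cells (LYMP1-002), 2500/well in complete medium, were exposed to compounds for 16 hr at 37 C. Dead-cell protease activity was read as bis-AAF-R110 fluorescence (Ex/Em 485/520), normalized to DMSO and 15 uM tetraoctylammonium bromide; AC50 from Hill fits.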

[14] = MultiTox-Fluor Cytotoxicity Assay - LYMP1-003 - Live Cells (AID 962); conditions: LYMP1-003 lymphoblastoid cells, MultiTox-Fluor live-cell protease fluorescence; note: potency is the fitted concentration of half-maximal effect
Summary of the method: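 LYMP1-003 human lymphoblastoid cells (2500/well) in complete medium were preincubated 5 hr at 37 C, then exposed to compounds for 16 hr at 37 C. Live-cell protease cleavage of GF-AFC read by fluorescence (Ex/Em 405/510); AC50 from Hill fits.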

[15] = Cell Viability - LYMP2-005 (AID 967); note: potency is the fitted concentration of half-maximal effect
Summary of the method: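 Acute cytotoxicity is scored as a concentration-dependent drop in intracellular ATP in human lymphoblastoid LYMP2-005 cells after 24 h compound treatment. ATP is quantified by luciferase luminescence, and AC50 is derived by Hill-equation modelling.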

[16] = Cell Viability - LYMP2-011 (AID 969); note: potency is the fitted concentration of half-maximal effect; nearly all actives have a fitted effect of over 60% in size
Summary of the method: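 Human lymphoblastoid cells (2500/well) were plated in complete medium, preincubated 5 hr at 37 C, then exposed to compounds for 24 hr at 37 C. Intracellular ATP was read by CellTiter-Glo luminescence, and AC50 came from Hill-equation concentration-response fits.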

[17] = Cell Viability - LYMP2-025 (AID 976); conditions: LYMP2-025 lymphoblastoid cell viability; note: potency is the fitted concentration of half-maximal effect
Summary of the method: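 Human lymphoblastoid LYMP2-025 cells (2500/well) were pre-incubated 5 hr at 37 C, then treated with compounds for 24 hr at 37 C in complete medium. Viability was read as intracellular ATP by CellTiter-Glo luminescence; AC50 from Hill fits.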

[18] = Cell Viability - LYMP2-006 (AID 978); note: potency is the fitted concentration of half-maximal effect; nearly all actives have a fitted effect of over 60% in size
Summary of the method: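 Cells are seeded at 2500 per well and rested 5 hr at 37 C. Compounds are added across a concentration series for 24 hr at 37 C, after which ATP is quantified by luciferase luminescence.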

[19] = Cell Viability - LYMP2-014 (AID 983); note: potency is the fitted concentration of half-maximal effect; nearly all actives have a fitted effect of over 50% in size
Summary of the method: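 Human lymphoblastoid cells (2500/well) were pre-incubated 5 hr at 37 C, then exposed to compounds in complete medium for 24 hr at 37 C. Intracellular ATP was read by CellTiter-Glo luminescence after 30 min at room temperature; AC50 from Hill fits.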

[20] = Cell Viability - LYMP2-024 (AID 988); note: potency is the fitted concentration of half-maximal effect; nearly all actives have a fitted effect of over 60% in size
Summary of the method: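 Human lymphoblastoid cells (2500/well) in complete medium were preincubated 5 hr at 37 C, then exposed to compounds for 24 hr at 37 C. Intracellular ATP was read by CellTiter-Glo luminescence; AC50 from Hill-equation fits of concentration-response data.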

[21] = Cell Viability - LYMP2-026 (AID 989); note: potency is the fitted concentration of half-maximal effect; nearly all actives have a fitted effect of over 50% in size
Summary of the method: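 Human lymphoblastoid cells (2500/well) in complete medium were preincubated 5 hr at 37 C, then exposed to compounds for 24 hr at 37 C. Cellular ATP was read by CellTiter-Glo luminescence; AC50 from Hill-equation fits of concentration-response data.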

[22] = Cell Viability - LYMP1-002 - Assay at 24 hr (AID 993); conditions: LYMP1-002 lymphoblastoid cells viability; note: potency is the fitted concentration of half-maximal effect
Summary of the method: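 Human lymphoblastoid LYMP1-002 cells, 2500/well in complete medium, were treated with compounds for 24 h at 37 C; intracellular ATP was read by CellTiter-Glo luminescence. AC50 values came from Hill-equation fits of qHTS concentration-response data.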

[23] = qHTS Assay for Identification of Small Molecule Inducers of Hypoxia Response (AID 2120; active = well fitted curve in the direction sought with a large enough effect in the signal ratio, with a control signal flat, not every such curve was filed as active; inconclusive = small, poorly fitted or top-dose-only effect, or a change in a side signal; inactive = no such curve, though single readings can be large or run the other way; the % refers to the signal ratio; note: potency is the fitted concentration of half-maximal effect); conditions: hypoxia response reporter cells, beta-lactamase ratio readout; activation: at 104 µM (top of the series)
Summary of the method: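 HRE-beta-lactamase reporter in CellSensor HRE-bla ME-180 cells, 2500 cells/well in Opti-MEM with 0.5% dialyzed FBS; compounds tested as titration series, 17 h at 37 degrees C. CCF4 substrate 2.5 h at room temperature; AC50 from 460/530 nm ratio.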

[24] = target: Estrogen receptor (Homo sapiens) (UniProt P03372); assay: qHTS assay for small molecule agonists of estrogen receptor alpha signaling (AID 588514; calls by dose curve; note: potency is the fitted concentration of half-maximal effect; nearly all actives have a fitted effect of over 70% in size); conditions: ER-alpha-UAS-bla HEK293, beta-lactamase ratio, 18 h; activation: at 76.8 µM (top of the series), percent of full estradiol response, vehicle zero
UniProt P03372, sequence (P03372 whole entry, looked up): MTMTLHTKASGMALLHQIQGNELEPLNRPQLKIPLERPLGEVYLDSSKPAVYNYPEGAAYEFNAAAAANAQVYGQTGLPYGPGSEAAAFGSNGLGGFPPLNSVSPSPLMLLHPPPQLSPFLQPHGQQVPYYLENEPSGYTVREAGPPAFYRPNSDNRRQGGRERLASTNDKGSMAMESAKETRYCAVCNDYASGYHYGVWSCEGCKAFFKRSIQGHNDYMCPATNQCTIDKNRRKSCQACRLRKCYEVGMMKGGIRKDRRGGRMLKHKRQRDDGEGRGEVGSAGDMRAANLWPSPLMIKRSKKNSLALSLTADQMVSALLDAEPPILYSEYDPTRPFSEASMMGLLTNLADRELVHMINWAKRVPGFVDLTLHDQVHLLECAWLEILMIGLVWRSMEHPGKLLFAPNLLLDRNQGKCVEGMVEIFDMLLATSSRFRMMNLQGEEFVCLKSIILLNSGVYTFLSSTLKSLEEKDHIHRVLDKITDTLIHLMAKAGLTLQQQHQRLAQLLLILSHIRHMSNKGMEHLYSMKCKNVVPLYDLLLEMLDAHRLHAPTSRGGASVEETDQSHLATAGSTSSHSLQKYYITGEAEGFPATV
Summary of the method: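 ER-alpha-UAS-bla GripTite HEK 293 cells in medium with 2% charcoal/dextran-treated FBS were treated with compound titrations at 37 C for 18 hrs; beta-lactamase reporter read by CCF4 fluorescence after 2 hrs at RT.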
Tags give direction and shape of the fitted curve or compound fluorescence and quenching.

With `Nc1ccc(O)cc1` as the molecule, how does the Potency [1] read?
The Potency was active: 47.3 µM.

And the Potency [2]?
The Potency was inconclusive [single point].

And the Potency [3]?
The Potency was active: 53.3 µM.

What about the Potency [4] of the same molecule?
The Potency was active: 31.6 µM.

What about the Potency [5] of the same molecule?
The Potency was active: 31.6 µM.

And the Potency [6]?
Its Potency is inconclusive [rising, partial curve].

And the caspase-3 activation [7]?
Its caspase-3 activation is inconclusive: 57.7%.

And the caspase-3 activation [8]?
The caspase-3 activation was inconclusive: -12.5%.

What about the Potency [9] of the same molecule?
The Potency was inconclusive [cytotoxic, full curve, poor fit].

What about the Potency [10] of the same molecule?
The Potency was inconclusive [cytotoxic, single point].

And the Potency [11]?
The Potency was inconclusive [cytotoxic, single point].

And the Potency [12]?
Its Potency is active: 50.1 µM.

What about the Potency [13] of the same molecule?
The Potency was active: 31.6 µM.

And the Potency [14]?
The Potency was inconclusive [cytotoxic, partial curve, poor fit].

And the Potency [15]?
The Potency was active: 25.1 µM.

And the Potency [16]?
The Potency was active: 39.8 µM.

What about the Potency [17] of the same molecule?
The Potency was inconclusive [cytotoxic, partial curve, poor fit].

And the Potency [18]?
The Potency was active: 50.1 µM.

What about the Potency [19] of the same molecule?
Its Potency is active: 39.8 µM.

And the Potency [20]?
The Potency was active: 25.1 µM.

What about the Potency [21] of the same molecule?
Its Potency is active: 50.1 µM.

What about the Potency [22] of the same molecule?
The Potency was active: 39.8 µM.

And the Potency [23]?
The Potency was inconclusive [side channel, falling, partial curve].

And the Potency [24]?
Its Potency is inconclusive [fluorescent, side channel, single point].
